# Assay results from the BET-seq Pho4 binding data (Le et al. 2018).
# The list shows a part of the results. The energies were worked out here from pooled read counts, against the library average; single values are noisy.
# Biological target: T1, Pho4 (S. cerevisiae) (UniProt P07270)
# T1 sequence: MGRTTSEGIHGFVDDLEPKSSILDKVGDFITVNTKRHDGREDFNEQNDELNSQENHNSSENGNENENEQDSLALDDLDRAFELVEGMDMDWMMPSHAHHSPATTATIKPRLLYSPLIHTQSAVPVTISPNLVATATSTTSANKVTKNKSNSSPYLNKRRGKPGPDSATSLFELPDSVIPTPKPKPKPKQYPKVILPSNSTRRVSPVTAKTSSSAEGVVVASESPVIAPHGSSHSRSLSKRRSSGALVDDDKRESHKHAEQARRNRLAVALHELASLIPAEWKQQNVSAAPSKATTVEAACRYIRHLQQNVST
# Test: relative binding free energy (BET-seq); higher = weaker binding
# Conditions: reference: library average
row,Sequence,relative binding free energy [kcal/mol]
1,TTTTGCACGTGTCATA,-0.14
2,AGTTTCACGTGAATGC,0.29
3,TATGTCACGTGATTAT,0.16
4,CTATACACGTGTGTGA,0.11
5,TCGATCACGTGTTAGG,0.04
6,TGGTGCACGTGTTATA,-0.01
7,TTTTACACGTGAGAAA,0.37
8,TGCTTCACGTGATTAT,0.29
9,TAAGTCACGTGAGGTT,0.37
10,GTCAGCACGTGATGTG,0.16
11,TCGGGCACGTGGTGGT,-0.1
12,TGGGTCACGTGGGGAA,-0.02
13,TATTGCACGTGGCTGG,-0.13
14,AGGAGCACGTGGTGCG,-0.09
15,ATATACACGTGTTTTG,0.01
16,GTTTTCACGTGGAGGA,0.28
17,GTTGGCACGTGCTGTT,-0.13
18,TTTTACACGTGTAATA,0.27
19,TGTGCCACGTGAGTTG,0.16
20,GCTGACACGTGTGTGG,0.04
21,GCGTGCACGTGATTGT,0.03
22,AGGTACACGTGTTAAA,0.08
23,TGGGTCACGTGTGTAT,0.13
24,GATGGCACGTGTTTGT,-0.02
25,AATGGCACGTGCTGGT,-0.22

row,Sequence,relative binding free energy [kcal/mol]
1,ATTGGCACGTGGACTT,-0.09
2,CTTGGCACGTGTAGTT,-0.03
3,ATTAACACGTGTGGTG,-0.01
4,CTAGGCACGTGAGAAT,0.44
5,AAGGACACGTGGCGTG,-0.1
6,AGCGCCACGTGAGGGT,0.13
7,CATGACACGTGGTGGT,-0.08
8,GTCTGCACGTGTGAAT,0.14
9,TGGCGCACGTGTCAGT,0.11
10,TCTGACACGTGCTGGG,0.03
11,GTAAGCACGTGATCGG,0.02
12,TTTGCCACGTGGGCAT,-0.2
13,AATTACACGTGATTTA,0.16
14,GGGAGCACGTGCTTAT,-0.06
15,ACGTTCACGTGGTGGA,0.11
16,TATTACACGTGGATGT,0.15
17,TCATTCACGTGTGGTT,0.22
18,TATGTCACGTGGCTCT,0.06
19,ATTAACACGTGGGGTT,-0.09
20,TACGGCACGTGCTGGT,-0.17
21,TATGTCACGTGGAGAT,0.08
22,GGGTGCACGTGACCGT,0.11
23,GGGCCCACGTGGGGGG,-0.3
24,AGGTGCACGTGGTCGT,-0.13
25,ATTCGCACGTGTGAGT,0.11

row,Sequence,relative binding free energy [kcal/mol]
1,AGGGTCACGTGGACGG,0.13
2,CATTTCACGTGTGGAG,0.29
3,TTTAGCACGTGTTGTG,-0.09
4,AAAATCACGTGGAGTT,0.16
5,TTGTGCACGTGGGGAG,-0.15
6,TTACGCACGTGGGGGA,-0.23
7,GGGCACACGTGGATGA,0.15
8,ATCTTCACGTGTTGAT,0.18
9,GGTGCCACGTGAGGTA,0.2
10,AGTGACACGTGTCTTG,-0.05
11,ACCGGCACGTGCGGGG,-0.19
12,TGTGGCACGTGTGGGC,0.01
13,GTAGGCACGTGAGATA,0.23
14,TAGGGCACGTGATGAA,-0.04
15,TACTGCACGTGGTGTC,-0.05
16,TTAGGCACGTGCTTTT,-0.19
17,TTTGTCACGTGGGCCG,-0.17
18,GGCTGCACGTGCATGG,0.02
19,GTGGGCACGTGTGTGA,-0.04
20,GATCTCACGTGCGTGT,0.22
21,GAATTCACGTGCAGGG,0.33
22,TTATTCACGTGGGTCA,0.09
23,TGCGGCACGTGAGGCT,0.12
24,ATATTCACGTGGGGAC,0.06
25,CGGATCACGTGGTTTA,0.17

row,Sequence,relative binding free energy [kcal/mol]
1,AGGGTCACGTGTGATC,0.36
2,ATGAGCACGTGTTCGT,-0.16
3,TTTAACACGTGATGCT,0.01
4,CGGCTCACGTGTGTTG,0.21
5,GGCGGCACGTGGTGTG,-0.16
6,TCTGTCACGTGAGGCT,0.21
7,TGGGGCACGTGAAAAA,0.14
8,CGTGGCACGTGTTTTT,-0.06
9,CTCAGCACGTGGGTGG,-0.27
10,TGTCACACGTGGGTCA,-0.05
11,CGGGCCACGTGAAGTG,0.25
12,TGGTCCACGTGAGATT,0.41
13,AATGCCACGTGCGGGG,-0.1
14,CAGGTCACGTGTTAAG,0.17
15,TAGGGCACGTGACGGG,-0.02
16,TTGTGCACGTGTGCTA,-0.02
17,TTTTGCACGTGAGGGA,0.28
18,TAATTCACGTGAAAAG,0.43
19,TCGGTCACGTGACTTG,0.37
20,CCCGGCACGTGGGTGG,-0.22
21,GAAAGCACGTGAAGGA,0.5
22,AGGCGCACGTGTTCGG,-0.1
23,CTTTTCACGTGTAGCT,0.2
24,TTAGGCACGTGATGGT,0.07
25,TAGGACACGTGTAATA,0.19

row,Sequence,relative binding free energy [kcal/mol]
1,TTTTACACGTGACATA,0.23
2,TGTTGCACGTGAGGGA,0.19
3,TTGGGCACGTGTGGTA,-0.05
4,GTTGGCACGTGGTCTG,-0.16
5,TTGCTCACGTGCGGGT,0.28
6,TAGAACACGTGTTTGA,-0.08
7,AACGGCACGTGTGGGA,-0.04
8,TCGAACACGTGCGGGG,0.06
9,GGGTTCACGTGCTGGA,0.35
10,GTCTTCACGTGTAATT,0.22
11,TTGACCACGTGGGTGC,-0.18
12,TGCGGCACGTGCGTGA,-0.18
13,GCTGACACGTGGAGGT,-0.03
14,TGTTGCACGTGAAGCG,0.29
15,TAGTGCACGTGAGATT,0.24
16,CGGTACACGTGGTATT,0.12
17,GGAGCCACGTGGTGAG,-0.06
18,GATTGCACGTGATTAG,0.25
19,GAAGCCACGTGGTGTA,-0.02
20,TTGCTCACGTGGATGA,0.38
21,ATCTCCACGTGTGTGG,0.08
22,AGGTACACGTGAGGGA,0.3
23,TTGGCCACGTGGTAAA,0.01
24,ATTTCCACGTGTTGGA,0.04
25,AGGATCACGTGGGCGG,0.02

row,Sequence,relative binding free energy [kcal/mol]
1,CTGTACACGTGGGGTA,-0.2
2,TAAAGCACGTGTAAGT,0.02
3,ATGTGCACGTGTTACT,0.05
4,GGTTGCACGTGGCACG,-0.07
5,TGGGTCACGTGACGTA,0.23
6,AGGTTCACGTGTGTTC,0.26
7,CTTGCCACGTGTTGGG,-0.07
8,TTTTTCACGTGGCAGC,0.33
9,GGGTACACGTGTGACT,0.31
10,ATTTGCACGTGGCAGT,-0.07
11,GGCATCACGTGTGGAG,0.21
12,GGGGCCACGTGTTTAT,-0.01
13,TTTTCCACGTGGCGGT,0.08
14,TGGTGCACGTGGTGAC,-0.05
15,ATCTCCACGTGGGTTG,-0.04
16,TTATTCACGTGATGGT,0.35
17,TAGTGCACGTGGATTT,0.02
18,TAATGCACGTGGTCAG,-0.2
19,AAAGACACGTGGTTAG,-0.02
20,TTAGGCACGTGTATAG,-0.09
21,CGAGGCACGTGATTTA,0.1
